# Test results published in patent publication US10858425B2, “Pan-ELR+ CXC chemokine antibodies” (Eli Lilly and Company, priority 2013, dated 2020).
# T1: human CXCL8 (IL-8) (Homo sapiens, UniProt P10145)
# T1 sequence (P10145 28-99 limits assumed): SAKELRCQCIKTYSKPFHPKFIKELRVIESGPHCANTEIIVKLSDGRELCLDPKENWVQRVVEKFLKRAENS
# T2: human CXCL2 (Gro Beta) (Homo sapiens, UniProt P19875)
# T2 sequence (P19875 35-107): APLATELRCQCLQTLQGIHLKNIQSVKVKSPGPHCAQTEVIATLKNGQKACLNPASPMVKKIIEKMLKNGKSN
# T3: human CXCL8 (72 amino acid form) (Homo sapiens, UniProt P10145)
# T3 construct: Both the 72 amino acid and 77 amino acid forms of CXCL8 were used
# T3 sequence (P10145 28-99): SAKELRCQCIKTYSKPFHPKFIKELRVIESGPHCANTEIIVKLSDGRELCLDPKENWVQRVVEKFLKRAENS
# How the values were obtained:
# [1] = target: T1, human CXCL8 (IL-8); assay: Biacore surface plasmon resonance binding to human CXCL8; conditions: 25° C.
# Experimental: (§1) Biacore 2000 instrument and Biacore 2000 Evaluation Software Version 4.1 are used for surface plasmon resonance analysis. A […] chip is prepared using manufacturer's EDC/NHS amine coupling method. Briefly, the surfaces of all four flow cells are activated by injecting a 1:1 mixture of EDC/NHS for 7 minutes at 10 μL/min. Protein A is diluted to 100 μg/mL in 10 mM acetate, pH 4.5 buffer, and immobilized to achieve approximately 10,000 RU onto all 4 flow cells by 7-minute injection at a flow rate of 10 μL/minute. Unreacted sites are blocked with a 7-minute injection of ethanolamine at 10 μL/minute. Two injections of glycine (pH 1.5) for 30 seconds at 10 μL/minute are used to remove any non-covalently associated protein. Running buffer is HBS-EP+.
# (§2) Antibody 1 or Antibody 2 is diluted to 2 μg/mL in running buffer, and approximately 400-600 RU is captured in flow cell (Fc). Ligands are diluted from 100 μg/mL to 50 nM in running buffer and then two-fold serially diluted in running buffer to 3.125 nM. Duplicate injections of each ligand concentration are injected at 100 μL/min for 150 seconds followed by a dissociation phase. […] The on-rate (kon) and off-rate (koff) for each ligand are evaluated using a “1:1 (mass transfer) Binding” binding model. The affinity […] is calculated from the binding kinetics according to the relationship: KD=koff/kon.
# [2] = target: T2, human CXCL2 (Gro Beta); assay: Biacore surface plasmon resonance binding to human CXCL2; conditions: 25° C.
# Experimental: as §1, §2
# [3] = target: T3, human CXCL8 (72 amino acid form); assay: FLIPR neutralization using HMEC cells expressing human CXCR2, CXCL8 (72); assay type: cell-based; conditions: CXCL8 (72) 10 nM; HMEC-huCXCR2 FLIPR
# Text: Since all of the ELR+ CXC chemokines can bind CXCR2 receptor, cells expressing CXCR2 were selected for in vitro studies. HMEC-huCXCR2 is an immortalized human endothelial cell line transduced with retrovirus for expression of human CXCR2 receptor. HMEC cells expressing human CXCR2 are able to induce intracellular Ca^2+ influx in response to human, cynomolgus monkey, rat, and mouse ELR+CXC chemokines. Intracellular Ca^2+ influx can be detected by a Fluorescent Imagine £late Reader (FLIPR). Chemokine neutralization should therefore also neutralize intracellular Ca^2+ influx induced by these chemokines.
# HMEC-huCXCR2 is maintained in MCDB 31 medium supplemented with 10% fetal bovine serum, 2× GlutaMax, 1× non-essential amino acids, 1 μg/mL hydrocortisone, 10 ng/mL human Epidermal Growth Factor, and 0.4 μg/mL puromycin at 37° C. in 5% CO2. […] A cell plate and a ligand-antibody plate are loaded into a Fluorescent Imagine Plate Reader (FLIPR-3, Molecular Devices) programmed to transfer 50 μL of ligand-antibody to wells of the cell plate. Fluorescence is recorded every second for 90 seconds. The change in fluorescence (DRFU) is calculated from images 10 to 90. DRFU versus log (antibody concentration) is plotted and IC50 values are determined by nonlinear regression using Graph Pad Prism. […] Data are expressed as the mean of replicates. […]
# [4] = Physical stability evaluation, % HMW aggregate by analytical SEC; assay type: physicochemical; conditions: for % HMW (t = 1 week) / Δ % HMW (t = 1 week) / % HMW (t = 4 weeks) / Δ % HMW (t = 4 weeks): 50 mg/mL; for Δ % HMW (t = 1 week): 1 week minus initial; for Δ % HMW (t = 4 weeks): 4 weeks minus initial
# Text: Protein aggregation and self-association is an undesirable property in antibodies as it could potentially exacerbate unwanted effects, such as triggering an immune response. Thus, maintaining the antibody in a monomeric state is highly desirable. Percent high molecular weight (% HMW) aggregate is an indicator of protein aggregation and self-association. A higher % HMW aggregate indicates increased protein aggregation/self-association and increased physical instability. Physical stability of Antibody 1 and Antibody 2 are determined as follows.
# Antibody is dialyzed overnight at 4° C. into 10 mM Citrate, pH 6+/−150 mM NaCl. The next morning, the samples are concentrated to 50 mg/mL, filtered through 0.2 micron filters, and then Tween-80 is added to a final concentration of 0.02%. Each sample is incubated at 25° C. for the specified times. Soluble aggregate formation is followed by analytical SEC using a TSK3000SWXL, 5 micron column with dimensions 30 cm×0.78 cm. […] Samples are applied as 1 μL injections and monitored at 280 nm to determine the increase % HMW aggregate (Table 3).
# The 50 mg/mL formulations are incubated for 1 and 4 weeks at 25° C. to assess longer-term stability under stress conditions. The delta % HMW aggregate is determined by subtracting the % HMW aggregate at time zero (designated as ‘Initial’ in Table 3) from the % HMW at the 1 week or 4 week time point.
# [5] = 10 mM Citrate pH7, 150 mM NaCl 25° C.
# [6] = 10 mM Citrate pH7, 150 mM NaCl, 0.02% Tween-80 25° C.
molecule,measurement,setting,value
"Antibody 1: antibody with heavy chain SEQ ID NO: 1 and light chain SEQ ID NO: 3, expressed in NSO cells (antibody) heavy: QVQLVQSGAEVKKPGASVKVSCKASGYEFTSYWIHWVRQAPGQGLEWMGNISPNSGSANYNEKFKSRVTMTRDTSTSTVYMELSSLRSEDTAVYYCAREGPYSYYPSREYYGSDLWGQGTLVTVSSASTKGPSVFPLAPCSRSTSESTAALGCLVKDYFPEPVTVSWNSGALTSGVHTFPAVLQSSGLYSLSSVVTVPSSSLGTKTYTCNVDHKPSNTKVDKRV[human IgG4 Fc with S228P (EU numbers) not spelt out] light: EIVLTQSPATLSLSPGERATLSCRASQSISNNLHWYQQKPGQAPRLLIYYTSRSVSGIPARFSGSGSGTDFTLTISSLEPEDFAVYYCGQNNEWPEVFGGGTKVEIKRTVAAPSVFIFPPSDEQLKSGTASVVCLLNNFYPREAKVQWKVDNALQSGNSQESVTEQDSKDSTYSLSSTLTLSKADYEKHKVYACEVTHQGLSSPVTKSFNRGEC",kon,[1],3.39 ± 0.03 (1/Ms) × 10^5
same,kon,[2],7.73 ± 0.86 (1/Ms) × 10^5
same,IC50,[3],0.951 (±0.416) ug/mL
same,% HMW Initial (4° C.),"[4]; 10 mM Citrate pH7, 150 mM NaCl, 0.02% Tween-80",1.05%
same,% HMW Initial (4° C.),"[4]; 10 mM Citrate pH7, 150 mM NaCl",0.78%
same,% HMW (t = 1 week),[4]; [5],1.24%
same,Δ % HMW (t = 1 week),[4]; [5],0.46%
same,% HMW (t = 4 weeks),[4]; [5],1.41%
same,Δ % HMW (t = 4 weeks),[4]; [5],0.63%
same,% HMW (t = 1 week),[4]; [6],1.46%
same,Δ % HMW (t = 1 week),[4]; [6],0.41%
same,% HMW (t = 4 weeks),[4]; [6],1.75%
same,Δ % HMW (t = 4 weeks),[4]; [6],0.7%
